# From PubChem BioAssay AID485344 (National Center for Advancing Translational Sciences (NCATS), 2010)
# The campaign covered roughly 340,000 compounds. About 6,900 (2%) were called active. No stated cut-off is given here; in the data, active means inhibition above about 30%; inactive means below that, where a call was filed. The list shows a part of the results, in another mix than the full data. The source gives no active or inactive call for entries shown without one.
# Biological target: D(2) dopamine receptor (Homo sapiens) (UniProt P14416)
# Assay: HTS Assay for Allosteric Antagonists of the Human D2 Dopamine Receptor: Primary Screen for Antagonists; further: 0% is about no effect
# Conditions: HEK293 TREx D2 cells, calcium flux, dopamine EC80; at 10 µM; stronger effect = higher value
# Procedure, shortened: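 Antagonism is scored as inhibition of an EC80 dopamine-evoked calcium signal in a force-coupled, tetracycline-inducible HEK293 T-REx D2 line, with compound present 180 s before agonist.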
# Chain of UniProt P14416 (P14416 whole entry, looked up): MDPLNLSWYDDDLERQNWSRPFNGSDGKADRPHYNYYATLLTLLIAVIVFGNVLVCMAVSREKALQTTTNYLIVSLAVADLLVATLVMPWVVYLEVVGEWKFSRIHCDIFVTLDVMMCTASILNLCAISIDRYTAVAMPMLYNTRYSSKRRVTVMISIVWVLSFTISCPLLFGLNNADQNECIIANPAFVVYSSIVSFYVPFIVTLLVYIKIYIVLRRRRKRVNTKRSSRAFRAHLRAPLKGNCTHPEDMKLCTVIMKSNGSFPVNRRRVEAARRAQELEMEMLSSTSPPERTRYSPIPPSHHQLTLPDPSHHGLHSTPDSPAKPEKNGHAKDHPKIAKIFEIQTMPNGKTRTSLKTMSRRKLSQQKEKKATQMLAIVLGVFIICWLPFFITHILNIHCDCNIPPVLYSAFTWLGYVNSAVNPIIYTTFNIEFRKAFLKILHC
row,Compound,inhibition
1,CN(C)S(=O)(=O)c1cc(NC(=O)CNCc2ccc(F)cc2)ccc1Cl,active: 43.8%
2,Cc1cccc(NC(=O)CSc2nc3ccc(NC(=O)c4cccs4)cc3s2)c1,1.1%
3,CC(C)c1ccc(OCc2cc(=O)n3c4c(sc3n2)CCCC4)cc1,16.1%
4,COc1ccc(OCC(=O)Nc2cc(-c3cccc(Cl)c3)nn2-c2ccccc2)cc1,-8.73%
5,COc1ccc(C(CNC(=O)c2oc3ccccc3c2C)N2CCCC2)cc1 (configuration not stated),active: 76%
6,CCc1ccc(Nc2cc(C)nc3nc(Cc4ccc(Cl)cc4)nn23)cc1,3.65%
7,COc1ccc(C2c3c(n(C)c4ccccc34)C(=O)N2CC(=O)Nc2ccc(Cl)cc2)cc1 (configuration not stated),0.438%
8,CCc1ccc(N2CCn3c2nc2c3c(=O)n(Cc3cccc(C)c3)c(=O)n2C)cc1,-10.7%
9,COc1cc2nc(SCC(=O)Nc3ccc(F)cc3)n3nc(CCn4c(C)nc5ccccc54)nc3c2cc1OC,6.01%
10,Cc1ccc(OC(=O)c2snnc2C)cc1C,-3.48%
11,O=C(CSc1ncc2c(n1)-c1ccccc1N(Cc1ccc(F)cc1)S2(=O)=O)c1ccc(Br)cc1,-3.29%
12,Cc1ccc(NC(=O)C(=O)NCC(c2ccc3c(c2)OCO3)N2CCOCC2)c(C)c1 (configuration not stated),-8.91%
13,CCCN1CCN(CCNC(=O)Nc2cc(OC)cc(OC)c2)CC1,-3.68%
14,COc1cc2c(=O)n(Cc3ccccc3)c(=O)n(CC(=O)Nc3cc(C(F)(F)F)ccc3Cl)c2cc1OC,23.7%
15,CN1C(C(=O)Nc2ccc(OC(F)(F)F)cc2)=CC(c2ccc3c(c2)OCO3)=NS1(=O)=O,3.51%
16,O=C(Cn1cccc1C(=O)c1ccccc1)NCc1ccc(F)cc1,3.62%
17,CCN(CC)c1ccc(NS(=O)(=O)c2ccc3c(c2)CCCN3C(C)=O)c(C)c1,12.8%
18,O=C(CN1CCN(S(=O)(=O)c2ccc(Cl)cc2)CC1)Nc1ccc(F)cc1F,active: 39%
19,COC(=O)c1cc2oc(C)cc2n1Cc1c(C)cc(C)cc1C,1.68%
20,COc1ccc2c(c1)CC(C(=O)N1CCC(C(N)=O)CC1)CO2 (configuration not stated),-10.9%
21,COc1ccc(CCNC(=O)c2cc(Sc3cccc(Cl)c3)nc3ccccc23)cc1OC,6.42%
22,COc1ccc2c(c1)NC(c1ccc(OCC(C)C)cc1)=NC(c1ccncc1)=N2,7.72%
23,CCOc1ccc(-c2n[nH]c3c2C(c2ccccc2OC)N(c2ccc(Br)cc2)C3=O)cc1 (configuration not stated),8.12%
24,O=C(Nc1cc(Cl)cc(Cl)c1)c1ccc(F)c(S(=O)(=O)N2CCCCCC2)c1,-8.41%
25,Cc1ccc(C(C)C)c(OCCn2cc(C(=O)c3ccco3)c3ccccc32)c1,-1.37%

row,Compound,inhibition
1,COc1ccccc1N1CCN(C(=O)c2oc3ccccc3c2NC(=O)C(C)Oc2ccccc2)CC1 (configuration not stated),-4.87%
2,CCC(=O)N1CCc2cc(Br)cc(S(=O)(=O)N3CCN(c4ccccc4)CC3)c21,-9.78%
3,COc1ccc(NC(=O)c2ccco2)cc1NC(=O)COc1cc(C)cc(C)c1,-8.61%
4,COc1ccc(CNC(=O)C2CCCN(S(=O)(=O)c3ccc4c(c3)CCCN4C(C)=O)C2)cc1 (configuration not stated),-0.783%
5,CCc1nnc2c(NCc3ccc(F)cc3)nc3ccccc3n12,17.5%
6,CCOc1ccc2nc(N3CCCC(C(=O)Nc4ccc(Br)c(C)c4)C3)sc2c1 (configuration not stated),-13.9%
7,COc1ccccc1N1CCN(S(=O)(=O)c2ccc(F)c(C(=O)Nc3ccc(C)c(F)c3)c2)CC1,22.5%
8,COc1ccc(OCC(=O)NCCCN2CCOCC2)cc1,active: 31.7%
9,COc1ccc(-c2ccnc3c(-c4ccc(F)cc4)c(C)nn23)cc1OC,3.95%
10,Cc1ccc(NC(=O)C2CCCN2S(=O)(=O)c2cccc3cccnc23)cc1 (configuration not stated),-4.63%
11,CC1CN(C(=O)N2CCC(C(=O)NC3CCCCCC3)CC2)c2cc(Cl)ccc2O1 (configuration not stated),13.7%
12,Cc1cc(C)n2nc(CNS(=O)(=O)c3ccc(Cl)cc3)nc2n1,-0.459%
13,O=c1[nH]c(SCc2ccc(F)cc2)nc2c1CCCC2,6.35%
14,O=C(Cn1cc(SCc2cccc(Cl)c2)c2ccccc21)N1CCOCC1,7.39%
15,CCc1ccccc1-n1c(-c2ccncc2)n[nH]c1=S,active: 69.6%
16,COc1cc(C(=O)NC2CC(=O)N(c3cccc(F)c3)C2)cc(OC)c1OC (configuration not stated),-19.6%
17,CCOc1ccc(CNC(=O)c2cc3c(=O)n(C)c4ccccc4c3s2)cc1,-7.66%
18,CCN(CC)CCCNC(=O)c1cc(-c2ccc(OC)c(OC)c2)on1,2.77%
19,Cc1ccc(NC(=O)Cn2c(=O)n(Cc3ccco3)c(=O)c3ccccc32)cc1,-12.8%
20,CN(C)S(=O)(=O)c1cccc(NC(=O)CNCC2CCCCC2)c1,active: 55.4%
21,Cc1ccc(NC(=O)CCCn2c(=O)c3cccn3c3cccnc32)c(Cl)c1,-3.52%
22,CN(C)CCCNc1oc(/C=C/c2ccc(F)cc2)nc1C#N,0.317%
23,O=c1oc2c3c(ccc2c2ccccc12)OCN(Cc1cccc(Cl)c1)C3,-4.18%
24,CCOc1ccccc1N(C)C(=O)C1CCCN(c2ncnc3onc(-c4ccc(F)cc4)c23)C1 (configuration not stated),-7.45%
25,O=C(CN1CCN(Cc2ccc(Cl)cc2)C1=O)NCc1ccc(F)cc1,1.9%

row,Compound,inhibition
1,Cc1cc(C)c(NC(=O)CSc2nccn2Cc2ccco2)c(C)c1,-10.3%
2,CCn1cc(C(=O)NCCc2ccccc2)c(=O)c2cc(S(=O)(=O)N(C)C3CCCCC3)ccc21,-3.5%
3,CC(=O)c1[nH]c(C)c(C(=O)NCCc2ccc(C)cc2)c1C,12.1%
4,Cc1ccc(C2=Nc3ccccc3N(CC(=O)Nc3cccc(F)c3)C(=O)C2)cc1C,-4.77%
5,COc1ccc(-c2noc(-c3ccc(NCc4ccccc4OC)c([N+](=O)[O-])c3)n2)cc1,11.5%
6,CC(=O)Nc1cccc(C(=O)NCc2ccc3c(c2)CCN3C(C)=O)c1,-6.57%
7,Cc1ccc(CSc2cn(CC(=O)N3CCCCC3)c3ccccc23)cc1,18.8%
8,CCc1ccc(CN(C(=O)c2cc3ccccc3oc2=O)C2CCS(=O)(=O)C2)cc1 (configuration not stated),-13.9%
9,Cc1ccc2nc(N(Cc3cccnc3)C(=O)C3COc4ccccc4O3)sc2c1 (configuration not stated),-28%
10,COc1ccc(Cl)cc1NC(=O)CCC(=O)c1ccc(C)cc1,4.89%
11,CC(=O)c1ccc(NC(=O)c2ncn(-c3ccccc3)n2)cc1,-4%
12,CCCCNC(=O)CCCn1c(=O)c2ccccc2n(Cc2ccccc2C)c1=O,10%
13,COc1ccc(CNC(=O)COCc2cc(-c3cccs3)on2)cc1OC,-1.52%
14,CCc1c(C)sc2c1CCN(Cc1ccc(F)cc1)C2c1ccccc1 (configuration not stated),-7.23%
15,CCN(CC)CCNC(=O)Cn1ncc2c([nH]c3ccccc32)c1=O,3.95%
16,CC(OC(=O)/C=C/c1ccccc1)C(=O)N1CCc2ccccc21 (configuration not stated),active: 30.4%
17,CCCCN(CC)CCCNC(=O)c1cc2c(-c3ccc(OC)c(OC)c3)nn(C)c2s1,0.653%
18,CCOc1ccc(-c2cnc(NCc3ccc(OC)cc3OC)n2C)cc1,-24.9%
19,O=C(NCc1ccc(F)cc1)c1ccc(NC(=O)N2CC3CCCN3c3ccccc32)cc1 (configuration not stated),-2.22%
20,COCCNC(=O)C1CCCN(S(=O)(=O)c2ccc3c(ccn3C)c2)C1 (configuration not stated),-7.58%
21,Cn1nc(C(=O)N2CCN(c3ccccc3F)CC2)c2c1-c1ccccc1SC2,17.7%
22,O=C1c2oc3ccc(F)cc3c(=O)c2C(c2cccc([N+](=O)[O-])c2)N1CCCN1CCOCC1 (configuration not stated),17.7%
23,COc1ccc(NC(=O)CN(Cc2ccccc2)S(=O)(=O)c2ccc3nc(C)sc3c2)cc1,0.666%
24,COc1cc(CN(C(=O)COc2ccc(C)c(C)c2)c2ccccn2)cc(OC)c1OC,0.726%
25,CCCN(CCC)CCNC(=O)c1cc2c(-c3ccccc3F)nn(C)c2s1,active: 41.5%

row,Compound,inhibition
1,O=c1c2cc(N3CCOCC3)ccc2[nH]c(=S)n1CCCN1CCN(c2ccccc2F)CC1,active: 83.6%
2,CC1(C)CCc2cc(CN3CCN(c4ccccn4)CC3)ccc2O1,active: 85.2%
3,COc1cc(NC(=O)c2cnn(-c3cccc(F)c3)c2C2CCNCC2)cc(OC)c1OC,4.76%
4,CCc1nnc(NC(=O)CSCc2cc(=O)c3ccc(C)cc3[nH]2)s1,-10.8%
5,COc1ccc(OC)c(S(=O)(=O)N2CCN(CC(O)COc3ccccc3)CC2)c1 (configuration not stated),active: 47.9%
6,Cc1cc(O)c(C(c2ccccc2Cl)N2CCN(c3ccccc3)CC2)c(=O)n1Cc1ccco1 (configuration not stated),-14.6%
7,Cc1ccc(C)c(NC(=O)CCCn2nc(C)c3sc4ccccc4c3c2=O)c1,-2.81%
8,Cc1ccc2c(c1)c1c(c(=O)n(Cc3ccccc3)c(=O)n1CC(=O)Nc1ccccc1C)n2C,4.32%
9,Cc1ccc(NC(=O)Cn2c(-c3ccc4c(c3)OCO4)cn(-c3ccccc3)c2=O)cc1,3.04%
10,COc1ccc(-c2c3c(=O)n(C)c(=O)n(C)c3c3c(-c4ccc(C)cc4)nc4ccccc4n23)cc1,-3.36%
11,CCN1CCC(N(Cc2cccc(OC)c2)C(=O)Nc2ccc(C)cc2Cl)CC1,-10.9%
12,Cc1ccc(CSc2nc(=O)c3c(n2C)NC(=O)CC3c2ccc(OC(C)C)cc2)cc1 (configuration not stated),10.3%
13,CCC(C(=O)Nc1cccc(C#N)c1)n1c(=O)c(-c2ccccc2NC(C)=O)nc2ccccc21 (configuration not stated),7.58%
14,CCCCCNC(=O)C(=O)NCC(c1ccc2c(c1)OCO2)N1CCOCC1 (configuration not stated),-12.2%
15,Cc1ccc(S(=O)(=O)Nc2cc3c(cc2N2CCOCC2)n(C)c(=O)n3C)c(C)c1,-9.91%
16,O=C(CSc1oc(-c2ccco2)nc1S(=O)(=O)c1ccc(Cl)cc1)c1ccc(Cl)cc1,10.6%
17,COc1ccc(CNC(=O)CC2N=C3c4ccccc4N=C(SCC(=O)Nc4ccc(N(C)C)cc4)N3C2=O)cc1 (configuration not stated),-2.42%
18,Cc1cc(Nc2cccc(O)c2)c2cccc(Br)c2n1,8.02%
19,Cc1sc2ncn(CC(=O)Nc3ccc(C(F)(F)F)cc3)c(=O)c2c1S(=O)(=O)N1CCN(C)CC1,1.59%
20,Cc1cccc(NC(=O)CSc2nnc3c4ccccc4n(C)c3n2)c1,-4.52%
21,CCc1ccc(S(=O)(=O)c2cn(CC(=O)Nc3cccc(C)c3)c3ccc(Cl)cc3c2=O)cc1,8.69%
22,COC(=O)c1ccccc1NC(=O)N(Cc1ccc(C)cc1)Cc1cccn1-c1nnc(N2CCCC2=O)s1,6.32%
